These results are taken from patent US20090143279A1 (priority 2007, published 2009).

Structures are written as SMILES. Where two headings read alike, the source gives them in different places.

The data set concerns cellular ATP levels. The settings on record: for ATP (composite Z-score): normalized score vs mock-treated (DMSO) wells.
Setting [1] is: 20 μM, composite Z-score vs DMSO.
Setting [2] is: composite Z-score vs DMSO, Conc 20 μM.
[3] abbreviates: composite Z-score vs mock-treated (DMSO) wells, Conc 20 μM.
Setting [4] is: normalized composite Z-score vs mock-treated (DMSO) wells, Conc 20 μM.
Setting [5] is: composite Z-score vs DMSO wells, Conc 20 μM.

Take `CC(C)[N+](C)(CCOC(=O)C1c2ccccc2Oc2ccccc21)C(C)C` [propantheline]: the ATP is, setting by setting: (10.86 μM, composite Z-score vs DMSO) 0.808; under setting [1], 0.070. Under setting [2], `CC[C@@H](C)C(=O)O[C@H]1[C@H](O)[C@H]2[C@@H](CN3C[C@@H](C)CC[C@H]3[C@@]2(C)O)[C@@H]2C[C@]34O[C@]5(O)[C@@H](OC(=O)[C@@](C)(O)CC)CC[C@@]3(C)[C@@H]5[C@@H](OC(C)=O)[C@@H](OC(C)=O)[C@H]4[C@@]21O` [protoveratrine A] had an ATP of 1.266. Take `CC1=CCc2c(cc3oc(C)cc(=O)c3c2O)OC1` [ptaeroxylin]: the ATP under setting [3] is listed as −0.704. As to `CC1(O)/C=C\C=C(\CO)C2CC(C)(C)C2(O)CC1` (stereo not shown) [punctaporin B], the ATP under setting [4] was −0.771.

With `CCc1nc(N)nc(N)c1-c1ccc(Cl)cc1` [pyrimethamine], the ATP under setting [5] came to 0.449.

`COC1=C[C@@H](C)[C@@H]2C[C@H]3OC(=O)C[C@H]4C(C)=C(OC)C(=O)[C@H]([C@@]2(C)C1=O)[C@@]34C` [quassin, reference compound]: under setting [1], the ATP is recorded as 0.866. As for `NC(=O)C1(O)C[C@@H](O)C(O)[C@H](O)C1` (stereo partly shown) [quinamide], the “ATP (composite Z-score)” value (Conc 20 μM) is listed as 1.161.

With `CCOC(=O)[C@H](CCc1ccccc1)N[C@@H](C)C(=O)N1Cc2ccccc2C[C@H]1C(=O)O` [quinapril], the ATP under setting [1] is reported as 0.434. Under setting [2], `C=C[C@H]1C[N@@]2CC[C@H]1C[C@@H]2[C@@H](O)c1ccnc2ccc(OC)cc12` [quinidine] yielded an ATP of 0.901. As to `C=C[C@H]1CN2CC[C@H]1C[C@H]2[C@H](OC(=O)OCC)c1ccnc2ccc(OC)cc12` [quinine ethyl carbonate], the ATP under setting [1] stood at 0.317.

The compound `O=C(O)c1cccnc1C(=O)O` [quinolinic acid] had an ATP under setting [1] of 0.107. Consider `COc1ccc(/C=C/c2cc(O)cc(O)c2)cc1` [resveratrol 4′-methyl ether], for which the ATP under setting [3] is −0.649.

With `COc1ccc(-c2coc3c(O)c(OC)ccc3c2=O)cc1` [retusin 7-methyl ether], the ATP under setting [2] is given as −0.148. For `C=C(C)/C=C1/C=CC(=O)C(C)=C1` [retusoquinone], the ATP under setting [3] is reported as −8.276. In the case of `COC1=C(O)C(=O)c2c(cc3oc(C(C)=O)c(O)c3c2O)C1=O` [rhodocladonic acid], the ATP under setting [2] amounted to 1.670. On to `Cc1c(O)c(C(=O)CC(C)C)c2oc3c(C(=O)CC(C)C)c(O)c(C)c(O)c3c2c1O` [rhodomyrtoxin], for which, under “Conc 20 μM”, the “ATP (composite Z-score)” value is reported as −2.765. Turning to `C[C@@H]1O[C@@H](O[C@H]2[C@H](Oc3cc(O)c4c(=O)cc(-c5ccc(O)cc5)oc4c3)O[C@H](CO)[C@@H](O)[C@@H]2O)[C@H](O)[C@H](O)[C@H]1O` [rhoifolin], the ATP under setting [4] worked out at 0.053.

Turning to `C1COC(NC(C2CC2)C2CC2)=N1` [rilmenidine], the ATP was found to be 0.135. Turning to `COc1ccc(-c2c(OC)c3c(OC)c4c(cc3oc2=O)OC(C)(C)C=C4)cc1` [robustic acid methyl ether, reference compound], the “ATP (composite Z-score)” value (Conc 20 μM) is listed as −0.589. Same read-out and setting: to `COc1ccc(-c2c(O)c3c(OC)c4c(cc3oc2=O)OC(C)(C)C=C4)cc1` [robustic acid, reference compound] belongs 0.257. On to `CC(C)c1nc(N(C)S(C)(=O)=O)nc(-c2ccc(F)cc2)c1/C=C/[C@@H](O)C[C@@H](O)CC(=O)O` [rosuvastatin, reference compound], for which the “cellular ATP levels, dose response” value (doses ranging up to 40 μM, 48 hours, FIG. 10) is “little to no effect”. Turning to `COc1cc2c(cc1OC)[C@@H]1C(=O)c3ccc(OC)c(CC=C(C)C)c3O[C@@H]1CO2` [rotenonic acid, methyl ether], the ATP under setting [3] is reported as −4.969. As to `COc1cc2c(cc1OC)[C@@H]1C(=O)c3ccc(O)c(CC=C(C)C)c3O[C@@H]1CO2` [rotenonic acid, reference compound], the ATP under setting [3] is listed as 0.763.

Under setting [2], `CC[C@@]1(O)C[C@H](O)c2c(cc3c(c2O)C(=O)c2c(O)ccc(O)c2C3=O)[C@H]1C(=O)OC` [rutilantinone] registered an ATP of −2.936. `OCc1ccccc1O` [salicyl alcohol] displayed an ATP under setting [5] of 0.113.

For the compound `CC[C@@H](C(=O)[C@@H](C)[C@@H](O)[C@H](C)[C@@H]1O[C@@H]([C@@H](CC)C(=O)O)CC[C@@H]1C)[C@H]1O[C@]2(C=C[C@@H](O)[C@]3(CC[C@@](C)([C@H]4CC[C@](O)(CC)[C@H](C)O4)O3)O2)[C@H](C)C[C@@H]1C` [salinomycin, reference compound], the ATP under setting [1] is on record as −3.542.

Take `C[C@@H]1O[C@@H](O[C@H]2[C@H](O[C@H]3CC[C@@]4(C)[C@@H](CC[C@]5(C)[C@@H]4CC=C4[C@@H]6CC(C)(C)CC[C@]6(C(=O)O)CC[C@]45C)[C@]3(C)CO)OC[C@H](O)[C@@H]2O)[C@H](O)[C@H](O)[C@H]1O` [sapindoside A]: under setting [2], the ATP is reported as −4.232. With `COc1ccc2c(c1)OC/C(=C\c1ccc(OC)c(O)c1)C2=O` [sappanone A dimethyl ether], for the setting “Conc 20 μM”, the “ATP (composite Z-score)” value is on record as −0.310. Same read-out and setting: next, `COc1ccc2c(c1)OC/C(=C/c1ccc(OC)c(OC)c1)C2=O` [sappanone A trimethyl ether]: −0.015. For the compound `C[C@]12CC[C@H](O)C[C@H]1CC[C@@H]1[C@@H]2[C@H](O)C[C@]2(C)[C@@H](C3=CC(=O)OC3)CC[C@]12O` [sarmentogenin], the ATP under setting [4] was found to be 1.794.

Consider `COc1cc2ccc(=O)oc2cc1O` [scopoletin], for which the ATP under setting [1] was 2.444. In the case of `C/C=C(/C)C(=O)O[C@H]1Cc2c(ccc3ccc(=O)oc23)OC1(C)C` [selinidin], under “Conc 20 μM”, the “ATP (composite Z-score)” value is −0.419.

Turning to `O=C(O)c1cc(O)c2c(c1)[C@H]([C@H]1c3cc(C(=O)O)cc(O)c3C(=O)c3c(O[C@@H]4O[C@H](CO)[C@@H](O)[C@H](O)[C@H]4O)cccc31)c1cccc(O[C@@H]3O[C@H](CO)[C@@H](O)[C@H](O)[C@H]3O)c1C2=O` [sennoside A], under setting [2], the ATP is listed as −0.358. Under setting [4], `CC(C)=CCc1c2c(c(O)c3c(=O)c(O)c(-c4ccccc4)oc13)C=CC(C)(C)O2` [sericetin] displayed an ATP of −1.140. `COc1cc(/C=C/C(=O)O)cc(OC)c1OC` [sinapic acid methyl ether] yielded an ATP of 0.600.

Under setting [2], `COC1=C[C@@H]2[C@@H]3Cc4ccc(OC)c(O)c4[C@]2(CCN3C)CC1=O` [sinomenine] registered an ATP of 0.495. For the setting “composite Z-score vs DMSO, Conc 8.94 μM”, `CN[C@@H]1[C@@H](O)[C@@H](O[C@@H]2[C@@H](O)[C@H](O[C@H]3OC(CN)=CC[C@H]3N)[C@@H](N)C[C@H]2N)OC[C@]1(C)O` [sisomicin] returned an ATP of 0.411. Consider `CC[C@H](CC[C@@H](C)[C@H]1CC[C@H]2[C@@H]3CC=C4C[C@@H](OC(C)=O)CC[C@]4(C)[C@H]3CC[C@]12C)C(C)C` [sitosteryl acetate], for which the ATP under setting [4] is 0.613. Regarding `O=C(O)CF` [sodium fluoroacetate], under setting [2], the ATP turned out to be 0.006. `CC(=O)N[C@@H](CC(=O)N[C@@H](CCC(=O)O)C(=O)O)C(=O)O` [spaglumic acid] showed an ATP under setting [5] of 0.357. Turning to `COc1cc2ccc(=O)oc2c2ccoc12` [sphondin], the ATP under setting [3] is 0.064. `C[C@]12CC[C@H]3[C@@H](CC[C@]4(O)C[C@@H](O)CC[C@]34C=O)[C@@]1(O)CC[C@@H]2C1=CC(=O)OC1` [strophanthidin] returned an ATP of −0.236. In addition, under setting [5], the ATP came to 0.227. In addition, the ATP under setting [4] stood at 0.044. The compound `C[C@]12CC[C@H]3[C@@H](CC[C@]4(O)C[C@@H](O)CC[C@]34C(=O)O)[C@@]1(O)CC[C@@H]2C1=CC(=O)OC1` [strophanthidinic acid] came in with an ATP under setting [4] of 0.463. Compound `[H]/N=C(/N)NS(=O)(=O)c1ccc(N)cc1` [sulfaguanidine] returned an ATP under setting [5] of −0.667. As for `Cc1noc(NS(=O)(=O)c2ccc(N)cc2)c1C` [sulfisoxazole], under setting [5], the ATP was found to be 0.384.

Turning to `CC1=C(CC(=O)O)c2cc(F)ccc2/C1=C\c1ccc([S+](C)[O-])cc1` (stereo not shown) [sulindac], the ATP is given as 0.793. Compound `COC(=O)C(C)c1ccc(C(=O)c2cccs2)cc1` (stereo not shown) [suprofen methyl ester] displayed an ATP under setting [2] of 0.771. Turning to `COC(=O)[C@H](O)[C@H]1C(C)(C)[C@H](OC(C)=O)[C@@H]2CC3=C4CC(=O)O[C@@H](c5ccoc5)[C@]4(C)CC[C@@H]3[C@@]1(C)C2=O` [swietenolide-3-acetate], the ATP under setting [3] turned out to be 1.431. As to `O=C(O)Cc1cc(I)c(Oc2cc(I)c(O)c(I)c2)c(I)c1` [tetrac], the “ATP (composite Z-score)” value (Conc 20 μM) turned out to be 1.510. `CCCCNc1ccc(C(=O)OCCN(C)C)cc1` [tetracaine]: the ATP under setting [5] is given as −0.220.

On to `N#Cc1c(Cl)c(Cl)c(Cl)c(C#N)c1Cl` [tetrachloroisophthalonitrile], for which the “ATP (composite Z-score)” value (Conc 20 μM) was −8.366. On to `CC(=O)OCC(=O)[C@@]1(O)CCC2C3CC[C@@H]4C[C@H](OC(C)=O)CC[C@]4(C)C3C(=O)C[C@@]21C` (stereo partly shown) [tetrahydrocortisone-3,21-diacetate], for which the ATP under setting [2] amounted to 0.067.

`CC(C)=CCCC1(C)C=Cc2c(O)c3c(c(CC=C(C)C)c2O1)OC12C(CC4CC1C(C)(C)OC2(C/C=C(/C)C(=O)O)C4O)C3=O` (stereo not shown) [tetrahydrogambogic acid]: the ATP under setting [3] is reported as −0.668. Turning to `O=C1C(O)=C(O)C(=O)C(O)=C1O` [tetroquinone], under setting [5], the ATP came out at 0.130. Take `O=c1c(O)cccc2c([C@H]3Oc4cc(O)cc(O)c4C[C@H]3O)cc(O)c(O)c12` [theaflavanin]: where the note is “Conc 20 μM”, the “ATP (composite Z-score)” value is 1.006. On to `CCNC(=O)CC[C@H](N)C(=O)O` [theanine], for which the ATP under setting [2] is given as 0.157. Turning to `Cn1cnc2c1c(=O)[nH]c(=O)n2C` [theobromine], the ATP under setting [5] is 0.392.

With `CN(C)C(=S)SSC(=S)N(C)C` [thiram], the ATP under setting [1] is given as −8.121.

Regarding `CCN(CC)CCNC(=O)c1cc(S(C)(=O)=O)ccc1OC` [tiapride], the ATP by setting is: (12.18 μM, composite Z-score vs DMSO) 0.231; under setting [1], 0.797. On to `C[C@H]1CC[C@]2(NC1)O[C@H]1C[C@H]3[C@@H]4CC[C@H]5C[C@@H](O)CC[C@]5(C)[C@H]4CC[C@]3(C)[C@H]1[C@@H]2C` [tomatidine], for which the ATP under setting [2] is 0.445.
